“And” between values parts separate entries of the source, which are not always exact repeats. Identical values can stand only once. The shares of active, inactive and inconclusive entries below differ from those in the screen. No potency is given beside an inconclusive call; the fits are too rough. The source made the active and inactive calls. Calls come from the whole dose curve; as a rule, active = well fitted cell-killing curve with a large enough effect in the repeat runs; inconclusive = weak or mixed curves; inactive = no such curve, though single readings can be large or run the other way.
assay: qHTS assay to identify small molecule antagonists of the peroxisome proliferator-activated receptor delta (PPARd) signaling pathway - cell viability counter screen (AID 743213); conditions: PPARd-bla HEK293H viability, CellTiter-Glo luminescence, 17 h; at 62 µM (top of the series); note: nearly all actives have a fitted effect of over 50% in size
From the text: U.S. Tox21 Program National Center for Advancing Translational Sciences [NCATS] NIH Chemical Genomics Center [NCGC] U.S. Environmental Protection Agency [EPA] National Institutes of Environmental Health Sciences [NIEHS] National Toxicology Program [NTP] U.S. Food and Drug Administration [FDA] Tox21 Assay Overview: The peroxisome proliferator-activated receptors (PPARs) are lipid-activated transcription factors of the nuclear receptor superfamily with three distinct subtypes namely PPAR alpha, PPAR delta (PPARd) and PPAR gamma. All these subtypes heterodimerizes with Retinoid X receptor (RXR) and have different physiological functions. […] To identify the compounds that inhibit PPAR-delta signaling, GeneBLAzer PPAR delta UAS-bla HEK293H cell line (Invitrogen, Carlsbad, CA, USA) containing a beta-lactamase reporter gene under the control of an Upstream Activator Sequence (UAS) was used to screen the Tox21 compound library. The cytotoxicity of the Tox21 compound library against the PPARd-bla cell line was tested in parallel by measuring the cell viability using CellTiter-Glo assay (Promega, Madison, WI) in the same wells.
Tox21 Assay Protocol Summary: PPARd-bla cells were dispensed at 3000 cells/5uL/well in 1536-well black wall/clear bottom plates using a Multidrop Combi (Thermo Fisher Scientific, Waltham, MA) dispenser. After the assay plates were incubated at 37 C and 5% CO2 for 5 h, 23 nL of compounds dissolved in DMSO, positive controls or DMSO only was transferred to the assay plate by a Pintool station (Kalypsys, San Diego, CA), followed by addition of 1ul L165041 (300 nM, final concentration in the wells). The assay plates were incubated at 37 C for 17 h, and then 1 uL of LiveBLAzerTM B/G FRET substrate was added using a Bioraptr Flying Reagent Dispenser (FRD) workstation (Beckman Coulter, Indianapolis, IN, USA). The assay plates were incubated at room temperature for 2 h and fluorescence intensity was measured by an Envision plate reader (PerkinElmer, Shelton, CT). For cell viability readout that measures cytotoxicity, 3 ul/well of CellTiter-Glo reagent was added into the assay plates using a Bioraptr FRD. After 30 min incubation at room temperature, the luminescence intensity in the plates was measured using a ViewLux plate reader (PerkinElmer).
% is set by controls: 0 for no effect and ±100 for the full control effect; potency is the fitted concentration of half-maximal effect; tags give direction and shape of the fitted curve.

SMILES	viability change, negative = cytotoxic
CC1(C)S[C@@H]2[C@H](NC(=O)[C@H](N)c3ccccc3)C(=O)N2[C@H]1C(=O)O	inactive: 1.16% and inactive: -13.6%

same assay, conditions: PPARd-bla HEK293H viability, CellTiter-Glo luminescence, 17 h; viability change, negative = cytotoxic: at 62 µM (top of the series) unless noted

SMILES	viability change, negative = cytotoxic	Potency
CCCCCCOc1ccccc1C(N)=O	inconclusive: -2.38%	–
Cn1cnc([N+](=O)[O-])c1Sc1ncnc2nc[nH]c12	–	inconclusive [cytotoxic, single point]
O=C(/C=C/C=C/c1ccc2c(c1)OCO2)N1CCCCC1	–	inconclusive [cytotoxic, single point]
C[C@@H](O[C@H]1OCCN(Cc2n[nH]c(=O)[nH]2)[C@H]1c1ccc(F)cc1)c1cc(C(F)(F)F)cc(C(F)(F)F)c1	–	active: 26.6 µM
Cc1cc(C2CCCCC2)n(O)c(=O)c1	–	active: 9.44 µM
CN(C)CCOc1ccccc1Cc1ccccc1	inactive: -30.9%	–
CN(C)c1ccc(C2(c3ccc(N(C)C)cc3)OC(=O)c3cc(N(C)C)ccc32)cc1	inactive: -26.8%	–
CC1(C)S[C@@H]2[C@H](NC(=O)[C@H](N)c3ccccc3)C(=O)N2[C@H]1C(=O)O	inconclusive: 30.1%	–
CCOC(=O)[C@H](CCc1ccccc1)N[C@@H](C)C(=O)N(CC(=O)O)C1Cc2ccccc2C1	–	inconclusive [cytotoxic, full curve, poor fit]
c1ccc2sc(SN(C3CCCCC3)C3CCCCC3)nc2c1	inactive: 0.0582% [at 80.4 µM]	–
C[C@H]1C[C@H](O)c2ccsc2S1(=O)=O	–	inconclusive [rising, single point]
CN(c1nccc(=O)[nH]1)C1CCN(c2nc3ccccc3n2Cc2ccc(F)cc2)CC1	inconclusive: 1.11% [cytotoxic]	–
Nc1ccc([N+](=O)[O-])cc1O	–	inconclusive [cytotoxic, full curve, poor fit]
CCCc1ccc(OC)cc1	–	inconclusive [rising, single point]
CC(C)n1nc(-c2cc3cc(O)ccc3[nH]2)c2c(N)ncnc21	–	inconclusive [cytotoxic, partial curve]
Cc1c[nH]c(=S)[nH]c1=O	–	active: 55.1 µM
CCC(O)C(C)(C)C (stereo not given)	inactive: 1.65% [at 80.4 µM]	–
CC1=CCC(C(C)C)=CC1	inactive: 7.01%	–
CNC(=O)c1ccccc1Sc1ccc2c(/C=C/c3ccccn3)n[nH]c2c1	–	active: 18.8 µM
CCCCCCOCCOCCO	–	inactive

SMILES	viability change, negative = cytotoxic	Potency
CCOC(C)=O	–	inconclusive [cytotoxic, full curve, poor fit]
O=C(OC(=O)c1ccccc1)c1ccccc1	–	inconclusive [cytotoxic, full curve, poor fit]
Cc1cc(O)cc2c1O[C@](C)(CCC[C@H](C)CCC[C@H](C)CCCC(C)C)CC2	–	inconclusive [cytotoxic, single point]
NC(N)=NN=C(/C=C/c1ccc([N+](=O)[O-])o1)/C=C/c1ccc([N+](=O)[O-])o1	–	active: 9.44 µM
OC[C@H]1O[C@@H](n2cnc3c(=S)nc[nH]c32)[C@H](O)[C@@H]1O	–	inconclusive [cytotoxic, partial curve]
CC(C)=CCC1C(=O)N(c2ccccc2)N(c2ccccc2)C1=O	–	inconclusive [cytotoxic, single point]
C#C[C@]1(O)CC[C@H]2[C@@H]3CCC4=Cc5oncc5C[C@]4(C)[C@H]3CC[C@@]21C	–	inconclusive [cytotoxic, single point]
CN1C(=O)N(c2ccccc2Br)Cc2cnc(Nc3ccc4c(c3)OCC(CO)O4)nc21 (stereo not given)	–	active: 11 µM
CCC(C)OC(C)CC (stereo not given)	–	inconclusive [cytotoxic, full curve, poor fit]
CCN(CC)CCNC(=O)c1c(C)[nH]c(/C=C2\C(=O)Nc3ccc(F)cc32)c1C	–	active: 4.73 µM
CC(C)Cc1ccc(C(C)C(=O)O)cc1 (stereo not given)	–	inconclusive [cytotoxic, full curve, poor fit]
CNc1ccc(O)cc1	–	active: 43.6 µM
CS(=O)(=O)c1ccc(-c2cn3ccccc3n2)cc1	–	inconclusive [cytotoxic, partial curve, poor fit]
CN(C)CCC=C1c2ccccc2C=Cc2ccccc21	–	active: 23.7 µM
CC=C(Cl)Cl	inactive: -3.11%	–
C=C[C@H]1CN2CC[C@H]1C[C@@H]2[C@@H](O)c1ccnc2ccc(OC)cc12	–	inconclusive [cytotoxic, full curve]
CCCCCCCC[N+](CCCCCCCC)(CCCCCCCC)CCCCCCCC	–	active: 6.9 µM
CCCCCCCCCCCCCOS(=O)(=O)O	–	inconclusive [cytotoxic]
CCCCCCCCCCCCSC#N	inactive: -12.1%	–
